Test results reported in PubChem BioAssay AID504333 (National Center for Advancing Translational Sciences (NCATS), 2011).
Out of some 360,000 compounds screened, about 16,000 (4.4%) were called active. The shares of active, inactive and inconclusive entries below differ from those in the screen. Calls follow the shape of the dose curve; as a rule, active = well fitted inhibition curve with a large enough effect; inconclusive = small, poorly fitted or top-dose-only effect; inactive = no such curve, though single readings can be large or run the other way. Where the call is inconclusive, the potency comes from a doubtful curve fit.

What follows are compounds tested against Bromodomain adjacent to zinc finger domain protein 2B (Homo sapiens) (UniProt Q9UIF8) (assay: qHTS Assay for Inhibitors of BAZ2B). Settings: AlphaScreen BAZ2B-H3K14Ac peptide displacement; series mostly up to 114 µM.
Outline: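 In this displacement format the biotinylated H3(5-23) peptide acetylated at Lys14 serves as ligand at 50 nM, with BAZ2B at 50 nM in PBS pH 7.4 containing 0.01% Tween-20. Donor and acceptor beads are 10 ug/mL final.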
Also: nearly all actives have a fitted effect of over 60% in size.
Potency is read from the fitted curve at half-maximal effect; tags tell the direction and shape of the fitted curve.

UniProt Q9UIF8, sequence (Q9UIF8 whole entry, looked up, the tested form may be a part): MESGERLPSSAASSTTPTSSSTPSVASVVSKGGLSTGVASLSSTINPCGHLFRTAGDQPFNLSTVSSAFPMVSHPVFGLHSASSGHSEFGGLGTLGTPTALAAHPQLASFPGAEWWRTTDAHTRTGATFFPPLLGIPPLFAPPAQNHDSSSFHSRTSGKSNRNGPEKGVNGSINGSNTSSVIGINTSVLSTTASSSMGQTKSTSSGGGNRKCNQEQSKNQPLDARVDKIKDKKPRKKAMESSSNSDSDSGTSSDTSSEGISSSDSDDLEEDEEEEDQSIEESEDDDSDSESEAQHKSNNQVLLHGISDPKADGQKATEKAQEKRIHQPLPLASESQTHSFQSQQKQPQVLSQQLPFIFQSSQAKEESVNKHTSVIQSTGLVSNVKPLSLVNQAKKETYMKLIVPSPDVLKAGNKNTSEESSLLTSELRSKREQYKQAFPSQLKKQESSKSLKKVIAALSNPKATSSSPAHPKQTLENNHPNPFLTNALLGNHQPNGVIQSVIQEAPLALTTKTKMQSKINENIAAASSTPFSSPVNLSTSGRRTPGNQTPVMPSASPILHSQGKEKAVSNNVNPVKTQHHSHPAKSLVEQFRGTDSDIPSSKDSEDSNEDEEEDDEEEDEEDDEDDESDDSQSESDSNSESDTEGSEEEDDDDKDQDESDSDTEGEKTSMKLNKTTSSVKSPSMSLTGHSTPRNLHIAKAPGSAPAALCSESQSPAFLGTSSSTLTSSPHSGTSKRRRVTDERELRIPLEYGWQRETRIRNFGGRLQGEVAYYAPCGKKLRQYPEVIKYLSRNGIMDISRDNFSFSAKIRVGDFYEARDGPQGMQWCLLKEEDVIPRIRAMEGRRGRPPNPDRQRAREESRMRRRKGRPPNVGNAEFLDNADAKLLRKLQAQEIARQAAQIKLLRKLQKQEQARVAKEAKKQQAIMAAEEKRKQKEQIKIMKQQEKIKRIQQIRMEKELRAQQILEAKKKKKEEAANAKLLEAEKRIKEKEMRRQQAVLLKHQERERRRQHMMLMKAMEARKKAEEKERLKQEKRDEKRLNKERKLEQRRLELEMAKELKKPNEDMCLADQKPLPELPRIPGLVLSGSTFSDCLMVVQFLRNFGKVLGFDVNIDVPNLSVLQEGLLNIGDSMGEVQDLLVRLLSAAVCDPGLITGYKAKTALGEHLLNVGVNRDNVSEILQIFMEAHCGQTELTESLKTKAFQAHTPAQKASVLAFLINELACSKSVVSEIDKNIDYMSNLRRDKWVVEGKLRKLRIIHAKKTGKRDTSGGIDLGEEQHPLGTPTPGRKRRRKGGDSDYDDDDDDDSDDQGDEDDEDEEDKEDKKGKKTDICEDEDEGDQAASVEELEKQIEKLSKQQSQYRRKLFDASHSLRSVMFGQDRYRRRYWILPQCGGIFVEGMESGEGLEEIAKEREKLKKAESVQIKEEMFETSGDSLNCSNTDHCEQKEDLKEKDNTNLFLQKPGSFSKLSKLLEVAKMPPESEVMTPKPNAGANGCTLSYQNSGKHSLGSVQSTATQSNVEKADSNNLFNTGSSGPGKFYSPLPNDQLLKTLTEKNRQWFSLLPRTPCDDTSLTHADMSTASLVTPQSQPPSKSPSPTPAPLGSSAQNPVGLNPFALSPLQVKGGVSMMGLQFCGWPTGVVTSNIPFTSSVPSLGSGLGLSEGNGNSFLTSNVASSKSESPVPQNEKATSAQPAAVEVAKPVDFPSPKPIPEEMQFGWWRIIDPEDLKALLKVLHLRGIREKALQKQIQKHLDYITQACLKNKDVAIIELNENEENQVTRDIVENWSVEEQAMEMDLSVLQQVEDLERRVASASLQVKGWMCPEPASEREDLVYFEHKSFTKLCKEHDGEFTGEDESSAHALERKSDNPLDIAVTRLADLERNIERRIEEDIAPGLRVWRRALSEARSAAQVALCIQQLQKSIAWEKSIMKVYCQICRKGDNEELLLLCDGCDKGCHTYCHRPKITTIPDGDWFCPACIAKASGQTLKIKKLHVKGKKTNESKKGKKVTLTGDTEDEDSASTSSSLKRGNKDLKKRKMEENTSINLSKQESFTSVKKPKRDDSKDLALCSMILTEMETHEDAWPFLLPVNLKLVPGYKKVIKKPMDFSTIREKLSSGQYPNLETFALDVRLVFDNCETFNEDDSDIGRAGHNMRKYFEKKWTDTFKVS

Row | Compound | Potency
1 | COc1ccc(NC(=O)CN2CCCC(C)C2)c([N+](=O)[O-])c1 (stereo unspecified) | inconclusive: 79.4 µM [inhibitor, single point]
2 | COc1ccc(Nc2sc(C(=O)Nc3cccc(Cl)c3)c(N)c2C(=O)Nc2ccccc2OC)cc1 | inconclusive: 70.8 µM [inhibitor, single point]
3 | Cc1ccc(CN2CC(C(=O)Nc3cc(S(C)(=O)=O)ccc3Cl)CC2=O)cc1 (stereo unspecified) | active: 50.1 µM
4 | Cn1ccnc1C(O)c1cc(C(C)(C)C)c(O)c(C(C)(C)C)c1 (stereo unspecified) | inconclusive: 79.4 µM [inhibitor, single point]
5 | CCOC(=O)C1=C(C)N(C)C(=S)NC1c1ccc(Cl)cc1Cl (stereo unspecified) | inconclusive: 89.1 µM [inhibitor, single point]
6 | O=C(CS(=O)(=O)c1ccc(Cl)cc1)NCCS(=O)(=O)c1ccc(Cl)cc1 | inactive
7 | CCc1nnc(N/N=C\c2ccc(OC(C)=O)c(OC)c2)n1N | inconclusive: 89.1 µM [inhibitor, single point]
8 | COc1cccc(/C=N/Nc2ncnc3scc(-c4ccccc4)c23)c1O | active: 12.6 µM
9 | CCN(CC)CCNC(=O)c1cc(Nc2ccc(OC)c(OC)c2)nc2ccccc12 | active: 39.8 µM
10 | COc1cccc(OCCNCc2ccccc2)c1 | inconclusive: 89.1 µM [inhibitor, single point]
11 | Cc1ccc(C(=O)N(c2ccccn2)C(C)c2ccco2)cc1C (stereo unspecified) | inactive
12 | CC1CCN(S(=O)(=O)c2ccc(C(=O)Nc3nnc(C4=COCCO4)o3)cc2)CC1 | inconclusive: 89.1 µM [inhibitor, single point]
13 | O=C(CNC(=O)OCc1ccccc1)Oc1cc2oc(=O)cc(-c3ccccc3)c2cc1Cl | inconclusive: 100 µM [inhibitor, single point]
14 | COc1cccc(-n2nnnc2SCC(=O)NCc2ccco2)c1 | inactive
15 | COc1cc(/C=C\C(=O)O)cc(S(=O)(=O)N2CCCCCC2)c1OC | inactive
16 | COc1cc2c(cc1OC)C(COc1ccc(F)cc1)N(C(=O)c1cccc(F)c1)CC2 (stereo unspecified) | inactive
17 | CCc1ccc(Nc2nnc(SCC(=O)NC(=O)CN3CCCC3=O)s2)cc1 | inconclusive: 79.4 µM [inhibitor, single point]
18 | CC(C)(C)Nc1scc(-c2ccccc2)[n+]1-c1ccccc1 | active: 50.1 µM
19 | O=C(c1ccc(Br)cc1)N(Cc1cccs1)c1ccc(F)cc1 | inactive
20 | CCCNC(=O)Cn1cnc2sc(C(=O)N3CCCC(C(=O)OCC)C3)c(C)c2c1=O (stereo unspecified) | inconclusive: 89.1 µM [inhibitor, single point]
21 | CCCCOc1ccc(-c2c(C#N)c(N)[nH]c(=S)c2C#N)cc1 | inconclusive: 39.8 µM [inhibitor, full curve, poor fit]
22 | COc1ccc(-c2cnc(C)o2)cc1S(=O)(=O)Nc1ccc(F)cc1F | inconclusive: 79.4 µM [inhibitor, single point]
23 | CCCNc1c(NS(=O)(=O)c2ccc(NC(=O)CC)cc2)c(=O)oc2ccccc12 | inactive

Row | Compound | Potency
24 | COc1cc(NC(=O)c2ccnnc2)cc(C(=O)Nc2cccc(C(F)(F)F)c2)c1 | inconclusive: 79.4 µM [inhibitor, single point]
25 | Cc1c(C(=O)N2CCOCC2)sc(NC(=O)c2ccc3c(c2)OCO3)c1C#N | inconclusive: 89.1 µM [inhibitor, single point]
26 | N#Cc1c(-c2ccc(Cl)cc2)c2c([nH]c1=S)CCCC2 | inactive
27 | CCCCn1c(/N=C/c2c[nH]c3ccccc23)nc2ccccc21 | inconclusive: 79.4 µM [inhibitor, single point]
28 | CC(C)[C@H](N)c1cn([C@@H](CC(N)=O)C(=O)N2CCNCC2)nn1 | inconclusive: 100 µM [inhibitor, single point]
29 | COc1ccc(C(C(=O)NC2CCCC2)N(Cc2cccnc2)C(=O)Cc2cccs2)cc1OC (stereo unspecified) | inconclusive: 89.1 µM [inhibitor, single point]
30 | O=C(CSc1ccc(-c2ccccn2)nn1)NCc1ccc(F)cc1 | active: 3.16 µM
31 | CCCCNC(=O)CSc1nc2cc3c(cc2c(=O)n1CCCCCC(=O)NCc1ccc(OC)cc1)OCO3 | inactive
32 | O=C(N/N=C/c1ccccn1)C12CC3CC(CC(C3)C1)C2 | inactive
33 | CC1CCCN(C/C=C/c2ccccc2[N+](=O)[O-])C1 (stereo unspecified) | inactive
34 | CC(C)Oc1cccc(C(=O)C2CCCN(Cc3cnc(N4CCOCC4)s3)C2)c1 (stereo unspecified) | inconclusive: 56.2 µM [inhibitor, partial curve]
35 | CC(C)CNC(=O)/C(C#N)=C1\N=C(NC(=O)c2ccco2)c2ccccc21 | inconclusive: 8.91 µM [inhibitor, full curve]
36 | CC(=O)c1cccc(NC(=O)CCc2nnc3ccc(NCc4ccco4)nn23)c1 | inconclusive: 25.1 µM [inhibitor, single point]
37 | O=[N+]([O-])c1cccc(Cl)c1CSc1ccccn1 | inconclusive: 25.1 µM [inhibitor, full curve]
38 | Nc1nncn1C(=O)c1cccs1 | inconclusive: 56.2 µM [inhibitor, partial curve]
39 | O=C(NCC(=O)N1CCN(S(=O)(=O)c2ccccc2)CC1)c1ccc(Br)o1 | inactive
40 | O=S(=O)(Nc1cccc(-c2cn3ccsc3n2)c1)c1ccc(F)cc1 | inconclusive: 50.1 µM [inhibitor, partial curve]
41 | COc1ccc(CNC(=O)CN(C(=O)CCC(=O)Nc2nccs2)c2cccc(C)c2)cc1 | inactive
42 | COc1ccc(C2C=C(c3ccc(Br)s3)Nc3ncnn32)cc1OC (stereo unspecified) | inconclusive: 89.1 µM [inhibitor, single point]
43 | COC(=O)c1sc(-c2ccc(C(C)(C)C)cc2)cc1NC(=O)c1ccccc1C(=O)O | active: 79.4 µM
44 | O=c1c2ccccc2nc2c3ccccc3c(NCc3cccnc3)nn12 | inactive
45 | CCN(CC)c1ccc(NC(=O)CN2CCN(c3ccc(F)cc3)CC2)cc1 | inconclusive: 35.5 µM [inhibitor, partial curve]
46 | COc1ccc(-c2cn3c(n2)sc2cc(C(=O)NCc4cccc(F)c4)ccc23)cc1 | inconclusive: 89.1 µM [inhibitor, single point]
